Results from the supplement of paper PMC12889115.
The other results are listed elsewhere or left out. No stated cut-off is given here; in the data, active = 25% or less and inactive = the rest. Repeats are few or missing, and single values can be far off.

system: Salmonella enterica serovar Typhimurium SL1344; experiment: intramacrophage bacterial GFP load (SAFIRE), percent of DMSO control (% of DMSO); higher = more intracellular bacteria (less inhibition); conditions: 25 µM; system: infected RAW 264.7 macrophages
Protocol: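 Secondary screen of the 553 primary hits at 25 µM. (i) S. Typhimurium SL1344 grown in Mueller-Hinton broth with 0.5 µg/mL polymyxin B, OD600 read after 18 h. (ii) SAFIRE assay: RAW 264.7 macrophages infected with S. Typhimurium sifB::gfp (MOI 30); compound added 2 h post-infection; cells fixed at 18 h; GFP-positive pixel fraction per macrophage imaged by confocal microscopy and expressed as % of DMSO control.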
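Further: compounds tested were the hits of an earlier 50 µM broth growth screen of a drug-like diversity library run with polymyxin B.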

| SMILES | intramacrophage bacterial GFP load |
| --- | --- |
| Fc1cccc(C2CCN(CC3CC3)c3ccccc3S2)c1 (stereo not given) | inactive: 105 |
| Cc1ccc2c(c1)CN(CC(=O)NCc1cn3c(C)cccc3n1)CC(c1ccsc1)O2 (stereo not given) | inactive: 52.6 |
| CCn1ccnc1CN(C)C(=O)CC(c1ccccc1)c1ccc(Cl)cc1 (stereo not given) | active: 18.9 |
| CCOC(=O)C1(Cc2ccc(Cl)cc2)CCN(C(=O)NC(C)(C)C)CC1 | inactive: 55.5 |
| COc1ccccc1CN1CCc2c([nH]c3ccccc23)C1c1cccc(O)c1 (stereo not given) | active: 0.0216 |
| CCN(Cc1ccccc1)c1nc(CNC(=O)Cn2nc(C)c3ccccc3c2=O)nc2ccccc12 | inactive: 45.3 |
| COCC1CCN(C(=O)CC(c2ccccc2)c2cccc(Cl)c2)CC1 (stereo not given) | inactive: 67.7 |
| Cc1nc(C(=O)NCc2cccnc2-n2ccnc2)cs1 | inactive: 157 |
| O=C1CCC(CCNCc2cc3c(cc2Cl)OCO3)N1CC1C2CC3CC(C2)CC1C3 (stereo not given) | active: 0.51 |
| CSc1ncc(CN2CCc3c([nH]c4ccccc34)C2c2cccc(O)c2)cn1 (stereo not given) | inactive: 103 |
| COc1ccc(CN(Cc2ccncc2)C(=O)c2sccc2C)cc1OCc1ccccc1F | inactive: 125 |
| CC(C)CC(=O)C1CCCN(c2nncc(-c3cccc(Cl)c3)n2)C1 (stereo not given) | inactive: 152 |
| OC(Cc1ccccc1)c1ccc2c(c1)CN(Cc1ccc(OC(F)F)cc1)CCO2 (stereo not given) | inactive: 63.7 |
| COc1cc(C(=O)N(Cc2cccc(OCCc3cccs3)c2)C2CCCC2)cc(OC)c1OC | inactive: 109 |
| COc1cc(CN2CCOc3ccc(CN4CCc5sccc5C4)cc3C2)cc2c1OCO2 | active: 23.5 |
